Assay results taken from the supplement of paper PMC4604168 (melanoma cell lines).
This is one part of the list. Most values come without repeats; read them as rough.

System: COLO829
Assay: cell count relative to DMSO control; melanoma cells; higher = more viable cells
Details: library dose: low library concentration; 72 h
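Further: cell number obtained by counting DAPI-stained nuclei in high-throughput microscope images with image analysis software, screen run in 1,536-well plates.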

Row | SMILES | cell count [%]
1 | O=C(Nc1cc(C(F)(F)F)cc(C(F)(F)F)c1)c1cc(Cl)ccc1O + C/C(O)=C(\C#N)C(=O)Nc1cc(Br)ccc1Br [LFM-A13] (first compound 0.016 µM, partner dose 2 µM) | 87.2
2 | N#CC[C@H](C1CCCC1)n1cc(-c2ncnc3[nH]ccc23)cn1 [ruxolitinib] + C/C(O)=C(\C#N)C(=O)Nc1cc(Br)ccc1Br [LFM-A13] (first compound 1 µM, partner dose 2 µM) | 118
3 | O=C(/C=C/c1cccnc1)NCCCCC1CCN(C(=O)c2ccccc2)CC1 + C/C(O)=C(\C#N)C(=O)Nc1cc(Br)ccc1Br [LFM-A13] (first compound 0.01 µM, partner dose 2 µM) | 70.4
4 | Cn1cnc2c(F)c(Nc3ccc(Br)cc3Cl)c(C(=O)NOCCO)cc21 [selumetinib] + O=C(Oc1ccc([N+](=O)[O-])cc1)N1CCC(C(O)(c2ccc3c(c2)OCO3)c2ccc3c(c2)OCO3)CC1 [JZL184] (first compound 0.015 µM, partner dose 1 µM) | 141
5 | Nc1ncn([C@H]2C[C@H](O)[C@@H](CO)O2)c(=O)n1 [decitabine] + O=C(Oc1ccc([N+](=O)[O-])cc1)N1CCC(C(O)(c2ccc3c(c2)OCO3)c2ccc3c(c2)OCO3)CC1 [JZL184] (first compound 0.1 µM, partner dose 1 µM) | 93
6 | O=C(/C=C/c1cccnc1)NCCCCC1CCN(C(=O)c2ccccc2)CC1 + Cc1cc(SCc2sc(-c3ccc(C(F)(F)F)c(F)c3)nc2C)ccc1OCC(=O)O [GW0742] (first compound 0.01 µM, partner dose 2 µM) | 79.2
7 | CS(=O)(=O)c1ccc(C(=O)Nc2ccc(Cl)c(-c3ccccn3)c2)c(Cl)c1 [vismodegib] + C/C(O)=C(\C#N)C(=O)Nc1cc(Br)ccc1Br [LFM-A13] (first compound 1 µM, partner dose 2 µM) | 103
8 | CS(=O)(=O)CCNCc1ccc(-c2ccc3ncnc(Nc4ccc(OCc5cccc(F)c5)c(Cl)c4)c3c2)o1 [lapatinib] + Cc1cc(SCc2sc(-c3ccc(C(F)(F)F)c(F)c3)nc2C)ccc1OCC(=O)O [GW0742] (first compound 0.8 µM, partner dose 2 µM) | 105
9 | NC1(c2ccc(-c3nc4ccn5c(=O)[nH]nc5c4cc3-c3ccccc3)cc2)CCC1 + C/C(O)=C(\C#N)C(=O)Nc1cc(Br)ccc1Br [LFM-A13] (first compound 0.4 µM, partner dose 2 µM) | 92.6
10 | CC(=O)c1c(C)c2cnc(Nc3ccc(N4CCNCC4)cn3)nc2n(C2CCCC2)c1=O [palbociclib] + O=C(Oc1ccc([N+](=O)[O-])cc1)N1CCC(C(O)(c2ccc3c(c2)OCO3)c2ccc3c(c2)OCO3)CC1 [JZL184] (first compound 0.04 µM, partner dose 1 µM) | 90.7

System: G361
Assay: as above
Details: library dose: low library concentration; 72 h

Row | SMILES | cell count [%]
11 | COc1ccc(C2=N[C@@H](c3ccc(Cl)cc3)[C@@H](c3ccc(Cl)cc3)N2C(=O)N2CCNC(=O)C2)c(OC(C)C)c1 [Nutlin-3] + C/C(O)=C(\C#N)C(=O)Nc1cc(Br)ccc1Br [LFM-A13] (first compound 0.1 µM, partner dose 2 µM) | 91.9
12 | CCCCCCCCCCCCCCCCCCOP(=O)([O-])OC1CC[N+](C)(C)CC1 [Perifosine] + O=C(Oc1ccc([N+](=O)[O-])cc1)N1CCC(C(O)(c2ccc3c(c2)OCO3)c2ccc3c(c2)OCO3)CC1 [JZL184] (first compound 0.4 µM, partner dose 1 µM) | 99.1
13 | CCN(CC)CCNC(=O)c1c(C)[nH]c(/C=C2\C(=O)Nc3ccc(F)cc32)c1C [sunitinib] + Cc1cc(SCc2sc(-c3ccc(C(F)(F)F)c(F)c3)nc2C)ccc1OCC(=O)O [GW0742] (first compound 0.4 µM, partner dose 2 µM) | 100
14 | Nc1nc(F)nc2c1ncn2[C@@H]1O[C@H](CO)[C@@H](O)[C@@H]1O [fludarabine] + C/C(O)=C(\C#N)C(=O)Nc1cc(Br)ccc1Br [LFM-A13] (first compound 0.2 µM, partner dose 2 µM) | 91.1
15 | Cc1cc(Nc2cc(N3CCN(C)CC3)nc(/C=C/c3ccccc3)n2)n[nH]1 + C/C(O)=C(\C#N)C(=O)Nc1cc(Br)ccc1Br [LFM-A13] (first compound 0.04 µM, partner dose 2 µM) | 85.9
16 | NC1(c2ccc(-c3nc4ccn5c(=O)[nH]nc5c4cc3-c3ccccc3)cc2)CCC1 + Cc1cc(SCc2sc(-c3ccc(C(F)(F)F)c(F)c3)nc2C)ccc1OCC(=O)O [GW0742] (first compound 0.4 µM, partner dose 2 µM) | 86.2
17 | Nc1ncn([C@H]2C[C@H](O)[C@@H](CO)O2)c(=O)n1 [decitabine] + C/C(O)=C(\C#N)C(=O)Nc1cc(Br)ccc1Br [LFM-A13] (first compound 0.1 µM, partner dose 2 µM) | 96.9
18 | CCCCCCCCc1ccc(CCC(N)(CO)CO)cc1 [fingolimod] + C/C(O)=C(\C#N)C(=O)Nc1cc(Br)ccc1Br [LFM-A13] (first compound 2 µM, partner dose 2 µM) | 85.8
19 | CC[C@]1(O)C[C@H]2CN(CCc3c([nH]c4ccccc34)[C@@](C(=O)OC)(c3cc4c(cc3OC)N(C=O)[C@H]3[C@@](O)(C(=O)OC)[C@H](OC(C)=O)[C@]5(CC)C=CCN6CC[C@]43[C@@H]65)C2)C1 [vincristine] + Cc1cc(SCc2sc(-c3ccc(C(F)(F)F)c(F)c3)nc2C)ccc1OCC(=O)O [GW0742] (first compound 0.0001 µM, partner dose 2 µM) | 89.6
20 | Cc1ccc(Nc2nccc(N(C)c3ccc4c(C)n(C)nc4c3)n2)cc1S(N)(=O)=O [Pazopanib] + C/C(O)=C(\C#N)C(=O)Nc1cc(Br)ccc1Br [LFM-A13] (first compound 0.4 µM, partner dose 2 µM) | 94
21 | COc1cc([C@@H]2c3cc4c(cc3[C@@H](O[C@@H]3O[C@@H]5CO[C@@H](C)O[C@H]5[C@H](O)[C@H]3O)[C@H]3COC(=O)[C@H]23)OCO4)cc(OC)c1O [etoposide] + Cc1cc(SCc2sc(-c3ccc(C(F)(F)F)c(F)c3)nc2C)ccc1OCC(=O)O [GW0742] (first compound 0.02 µM, partner dose 2 µM) | 92.5
22 | Cc1cc(Nc2cc(N3CCN(C)CC3)nc(/C=C/c3ccccc3)n2)n[nH]1 + Cc1cc(SCc2sc(-c3ccc(C(F)(F)F)c(F)c3)nc2C)ccc1OCC(=O)O [GW0742] (first compound 0.04 µM, partner dose 2 µM) | 106
23 | Cn1cnc2c(F)c(Nc3ccc(Br)cc3Cl)c(C(=O)NOCCO)cc21 [selumetinib] + C/C(O)=C(\C#N)C(=O)Nc1cc(Br)ccc1Br [LFM-A13] (first compound 0.015 µM, partner dose 2 µM) | 94.4
24 | NC(=O)c1ccc(N(C(N)=O)c2c(F)cccc2F)nc1-c1ccc(F)cc1F + C/C(O)=C(\C#N)C(=O)Nc1cc(Br)ccc1Br [LFM-A13] (first compound 0.4 µM, partner dose 2 µM) | 104
25 | O=C(O)[C@@H]1[O][Sb](=[O])([O][Sb]2(=[O])[O][C@H]([C@H](O)CO)[C@H](O)[C@H](C(=O)O)[O]2)[O][C@H]([C@H](O)CO)[C@@H]1O (stereo partly specified) [stibogluconate] + O=C(Oc1ccc([N+](=O)[O-])cc1)N1CCC(C(O)(c2ccc3c(c2)OCO3)c2ccc3c(c2)OCO3)CC1 [JZL184] (first compound 2 µM, partner dose 1 µM) | 113
26 | Cc1ccc(Nc2nccc(N(C)c3ccc4c(C)n(C)nc4c3)n2)cc1S(N)(=O)=O [Pazopanib] + O=C(Oc1ccc([N+](=O)[O-])cc1)N1CCC(C(O)(c2ccc3c(c2)OCO3)c2ccc3c(c2)OCO3)CC1 [JZL184] (first compound 0.4 µM, partner dose 1 µM) | 104
27 | CNC(=O)c1cc(Oc2ccc(NC(=O)Nc3ccc(Cl)c(C(F)(F)F)c3)cc2)ccn1 [sorafenib] + O=C(Oc1ccc([N+](=O)[O-])cc1)N1CCC(C(O)(c2ccc3c(c2)OCO3)c2ccc3c(c2)OCO3)CC1 [JZL184] (first compound 0.4 µM, partner dose 1 µM) | 99.4
28 | CNC(=O)c1cc(Oc2ccc(NC(=O)Nc3ccc(Cl)c(C(F)(F)F)c3)cc2)ccn1 [sorafenib] + C/C(O)=C(\C#N)C(=O)Nc1cc(Br)ccc1Br [LFM-A13] (first compound 0.4 µM, partner dose 2 µM) | 107
29 | CCCS(=O)(=O)Nc1ccc(F)c(C(=O)c2c[nH]c3ncc(Cl)cc23)c1F + O=C(Oc1ccc([N+](=O)[O-])cc1)N1CCC(C(O)(c2ccc3c(c2)OCO3)c2ccc3c(c2)OCO3)CC1 [JZL184] (first compound 0.08 µM, partner dose 1 µM) | 94.4
30 | CCCCCCCCc1ccc(CCC(N)(CO)CO)cc1 [fingolimod] + O=C(Oc1ccc([N+](=O)[O-])cc1)N1CCC(C(O)(c2ccc3c(c2)OCO3)c2ccc3c(c2)OCO3)CC1 [JZL184] (first compound 2 µM, partner dose 1 µM) | 109
31 | Cc1cn(-c2cc(NC(=O)c3ccc(C)c(Nc4nccc(-c5cccnc5)n4)c3)cc(C(F)(F)F)c2)cn1 [nilotinib] + O=C(Oc1ccc([N+](=O)[O-])cc1)N1CCC(C(O)(c2ccc3c(c2)OCO3)c2ccc3c(c2)OCO3)CC1 [JZL184] (first compound 0.2 µM, partner dose 1 µM) | 106
